Hit rate of the full screen: of about 340,000 compounds, about 12,000 (3.5%) were called active. The shares of active, inactive and inconclusive entries below differ from those in the screen. Calls come from the whole dose curve; as a rule, active = well fitted inhibition curve with a large enough effect; inconclusive = small, poorly fitted or top-dose-only effect, or another doubt; inactive = no such curve, though single readings can be large or run the other way. Potencies of inconclusive entries are left out as doubtful fits.
experiment: qHTS Assay for Inhibitors of Hepatitis C Virus (HCV); details: Huh7.5.1 HCVcc-Cre (HCVcc is cell-culture hepatitis C virus) infection, luciferase reporter, 44 h; activity change, negative = inhibition: at 41.8 µM (top of the series)
Procedure, shortened: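 HCVcc-Cre virus at an moi near 0.5 was added right after compound to cells cultured 4 h from seeding (1,000 cells/well). Luciferase activity was determined 44 h later, 15 min after substrate addition at RT.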
% is set by controls: 0 for no effect and ±100 for the full control effect; potency is the fitted concentration of half-maximal effect; tags give direction and shape of the fitted curve.

Row | Structure (SMILES) | Potency | activity change, negative = inhibition
1 | O=C(N/N=C/C(Cl)=C\c1ccccc1)c1cccs1 | inactive | 
2 | c1ccc(CNc2nnnn2-c2ccccc2)cc1 | inactive | 
3 | Cc1cccc(N(CC(=O)NCCSCc2ccccc2)S(C)(=O)=O)c1C | inactive | 
4 | COc1ccc(OC)c(-c2csc(NC(=O)CSCc3c(C)noc3C)n2)c1 | active: 11.2 µM | 
5 | CC(C)(C)c1nc(SCC(=O)N2CC(=O)Nc3ccccc32)c2ccccc2n1 | inactive | 
6 | CCCCn1c(N)c(N(CC(C)C)C(=O)COC(=O)Cc2c(C)nc3ccccc3c2C)c(=O)[nH]c1=O | inactive | 
7 | C[C@@]12C(=O)N(Cc3ccco3)CC(=O)N1[C@H]1c3cc(Cl)ccc3OC[C@@H]1[C@@H]2c1ccccc1 | inconclusive [inhibitor, single point] | 
8 | O=C1C(Cl)=C(N2CCCCCC2)C(=O)N1c1ccccc1Cl | inactive | 
9 | CC(=O)Nc1nc(C)c(-c2csc(Nc3ccccn3)n2)s1 | active: 10 µM | 
10 | Cc1ccc(C(=O)Nc2nnc(NC(=S)Nc3ccccc3)s2)cc1 | inconclusive [inhibitor, single point] | 
11 | COc1ccccc1OCC(=O)Nc1ccc(NC(=O)COc2ccccc2OC)cc1 | inconclusive [inhibitor, partial curve] | 
12 | Cc1cc(C(=O)COC(=O)c2cccc(O)c2)c(C)n1C1CC1 | inconclusive [inhibitor, single point] | 
13 | COc1cc2c(cc1OC)C(c1cc3cc(OC)c(OC)cc3[nH]c1=O)N(C(=O)C1CC1)CC2 (stereo unspecified) | inactive | 
14 | CN=C1S/C(=C\c2ccc(N3CCCC3)c(F)c2)C(=O)N1C | inactive | 
15 | COc1cc2cc(CCOC(=O)c3ccc(C(F)(F)F)cc3)oc(=O)c2cc1OC | inactive | 
16 | Cc1ccc(C)c(N2CCN(S(=O)(=O)c3ccc4c(c3)CC(=O)N4C)CC2)c1 | inactive | 
17 | O=c1c2c([N+](=O)[O-])cc([N+](=O)[O-])cc2sn1Cc1ccccc1 | inconclusive [inhibitor, single point] | 
18 | COC(=O)c1ccccc1NC(=O)c1ccccc1SC | inconclusive [inhibitor, partial curve] | 
19 | Brc1cccc(OCCN2CCc3ccccc3C2)c1 | inconclusive [inhibitor, single point] | 
20 | COc1ccccc1NC(=O)CSc1nc2sc(C)c(C)c2c(=O)n1C | active: 10 µM | 
21 | O=C(OCC(=O)N1c2ccccc2Sc2ccccc21)C1CC(=O)N(Cc2ccco2)C1 (stereo unspecified) | inactive | 
22 | Cc1ccc(S(=O)(=O)N2CCCC(c3nc4c(nnn4Cc4ccc5c(c4)OCCO5)c(=O)[nH]3)C2)cc1 (stereo unspecified) | inactive | 
23 | Cc1cc(OC(C)C(=O)NC2CCN(Cc3ccccc3)CC2)c2c(C)cc(=O)oc2c1 (stereo unspecified) | inconclusive [inhibitor, partial curve] | 
24 | COc1cc(/C=C/c2nc3ccccc3c(=O)[nH]2)cc(OC)c1OC | inconclusive [inhibitor, partial curve] | 
25 | Cc1oc(C(C)(C)C)cc1-c1cc(NC(=O)c2ccc([N+](=O)[O-])cc2)n[nH]1 | inactive | 
26 | CCCn1nc(NC(=O)c2cccs2)c2cc3cc(OC)ccc3nc21 | active: 10 µM | 

Row | Structure (SMILES) | Potency | activity change, negative = inhibition
27 | Cc1cccc(CS(=O)(=O)Cc2ccc(C(=O)NC(C)c3ccccc3)o2)c1 (stereo unspecified) | inconclusive [inhibitor, partial curve] | 
28 | O=C(CNC(=O)c1cccs1)N/N=C/c1ccc(O)cc1O | inactive | 
29 | CN(C)S(=O)(=O)c1cc(NC(=O)CNCCN2CCOCC2)ccc1Cl | inactive | 
30 | O=C(C1CCN(S(=O)(=O)c2ccccc2)CC1)N(CCc1ccccc1)Cc1ccco1 | inconclusive [inhibitor, single point] | 
31 | Cc1cc(C)cc(NC(=O)C(=O)NCC2CCCN2S(=O)(=O)c2cccs2)c1 (stereo unspecified) | inconclusive [inhibitor, partial curve] | 
32 | C/C=C1\NC(=O)[C@H](C)NC(=O)[C@@H](NC(=O)[C@@H](Cc2ccc(O)cc2)NC(=O)[C@@H](NC(=O)/C(C)=C/C)C(C)C)[C@@H](C)OC(=O)[C@H](CCCCc2ccc(O)cc2)NC(=O)[C@@H](CCC(=O)O)NC1=O | inactive | 
33 | COc1cccc(Nc2ncc(C#N)c(N)n2)c1 | inactive | 
34 | CS(=O)(=O)N1CCN(c2ccc(NC(=O)c3ccc([N+](=O)[O-])o3)cc2)CC1 | inconclusive [inhibitor, single point] | 
35 | CN(Cc1cc2ccccc2[nH]c1=O)S(=O)(=O)c1ccccc1 | inactive | 
36 | O=C(NCCCN1CCOCC1)c1ccccc1 | inconclusive [inhibitor, single point] | 
37 | O=C(OCc1nnc(-c2ccccc2)o1)c1cccnc1Cl | inactive | 
38 | CN(C)c1cccc(C(=O)n2cc(C(=O)c3cc(F)ccc3O)cn2)c1 | inactive | 
39 | Cc1csc(=Nc2cccnc2)n1Cc1ccco1 | active: 0.562 µM | 
40 | CCCn1c(=NC(=O)c2ccncc2)c(C#N)cc2c(=O)n3cccc(C)c3nc21 | inactive | 
41 | CC(C)Sc1nc(N2CCOCC2)c2c3c(sc2n1)COC(C)(C)C3 | inconclusive [inhibitor, single point] | 
42 | N#CC1(NC(=O)Cn2ncc(Cl)c(Cl)c2=O)CCCCC1 | active: 4.47 µM | 
43 | COCCn1c(SCC(=O)c2c(N)n(C)c(=O)n(C)c2=O)nc2ccccc21 | inconclusive [inhibitor, partial curve, poor fit] | 
44 | O=C(Cc1cccc(NC(=O)C2CCCN(C(=O)CCc3ccccc3)C2)c1)Nc1ccc(C(=O)N2CCOCC2)cc1 (stereo unspecified) |  | inactive: -5.95% [at 8.37 µM]
45 | CCCCC(=O)Nc1ccc(NC(=O)c2ccco2)cn1 | inactive | 
46 | CSc1cccc(NC(=O)c2cc(S(=O)(=O)N3CCc4ccccc43)cn2C)c1 | inconclusive [inhibitor, partial curve] | 
47 | CCOc1c(O)ccc(C2NC(=O)NC(C)=C2C(=O)OC)c1[N+](=O)[O-] (stereo unspecified) | inconclusive [inhibitor, single point] | 
48 | Fc1ccc(COc2ccccc2CNCc2ccncc2)cc1 | inconclusive [inhibitor, single point] | 
49 | Cc1cccc(C)c1OCc1cc(C(=O)N(Cc2c(C)nn(C)c2C)C2CC2)no1 | active: 10 µM | 
50 | CC(C)c1ccc(NC2CCCN(C(=O)c3ccc(Cn4cnnn4)cc3)C2)cc1 (stereo unspecified) | inconclusive [inhibitor, single point] | 
51 | Cc1nn(C)c(Cl)c1CN1CCCC(CO)(Cc2cccc(Cl)c2)C1 (stereo unspecified) | inactive | 
52 | CC(OC(=O)c1ccncc1)C(=O)Nc1ccc([N+](=O)[O-])cc1Cl (stereo unspecified) | inactive | 

Row | Structure (SMILES) | Potency | activity change, negative = inhibition
53 | Cc1ccc(NC(=O)CN(C)C(=O)c2nn(C)c(=O)c3ccccc23)cc1 | inactive | 
54 | S=C(NCc1ccco1)N1CCN(C(c2ccccc2)c2ccccc2)CC1 | inconclusive [inhibitor, partial curve, poor fit] | 
55 | CCN1CCc2c(sc3c2c(NCc2ccco2)nc2nnnn23)C1 | inconclusive [inhibitor, single point] | 
56 | O=C(CN1CCN(Cc2ccc(F)cc2Cl)C1=O)NCCCN1CCOCC1 | inactive | 
57 | COc1ccccc1-c1sc2ccccc2c1-c1ccc(Br)nc1 | inconclusive [inhibitor, single point] | 
58 | N#C/C(=C/c1ccc(F)cc1)c1nnc(NC(=O)c2ccccc2)s1 | inactive | 
59 | O=C(Nc1ccc(N2CCCC2)cc1)c1cccc(F)c1 | inconclusive [inhibitor, full curve] | 
60 | Cc1ccc(NC(=O)/C=C/c2ccco2)cc1S(=O)(=O)N1CCCCCC1 | active: 2.82 µM | 
61 | CC1(CCC(=O)N2CCCC(N3CCN(c4cccc(C(F)(F)F)c4)CC3)C2)CC1 (stereo unspecified) | inconclusive [inhibitor, single point] | 
62 | CN(Cc1c(C(=O)N/N=C/c2cccc(O)c2)nnn1-c1nonc1N)C1CCCCC1 | inactive | 
63 | Cc1ccc(C)c(N=C2CCCN2Cc2ccccc2)c1C#N | inconclusive [inhibitor, single point] | 
64 | CCOC(=O)N1CCc2c(sc3c2C(=O)NC(c2ccccc2)N3)C1 (stereo unspecified) | inactive | 
65 | CCOC(=O)Cc1csc(SCC(=O)NC2CCS(=O)(=O)C2)n1 (stereo unspecified) | inactive | 
66 | O=C(COc1ccccc1)NNc1c2ccccc2nc2ccccc12 | active: 1 µM | 
67 | CCOCC(=O)Nc1cc(C(F)(F)F)ccc1Oc1cccc(Br)c1 | inactive | 
68 | O=c1c(-c2cnn(-c3ccccc3)c2)coc2cc(O)ccc12 | inconclusive [inhibitor, full curve, poor fit] | 
69 | CCCN(Cc1nc2cc(Cl)ccc2c(=O)[nH]1)C(=O)c1ccc(S(=O)(=O)N2CCCC2)cc1 | inactive | 
70 | COc1ccc(N=Nc2nc3cc(Br)c(Br)cc3n2C)c(OC)c1 | inconclusive [inhibitor, single point] | 
71 | O=c1oc(-c2cc3ccccc3o2)nc2sc3c(c12)CCCC3 | inconclusive [inhibitor, partial curve, poor fit] | 
72 | CN(c1ccc(OCC(=O)N2CCCC2)cc1)S(=O)(=O)c1ccc(Cl)cc1 | inactive | 
73 | O=C(NC(Cc1ccccc1)C(=O)N1CCc2ccccc2C1)c1ccccc1 (stereo unspecified) | inconclusive [inhibitor, single point] | 
74 | COc1ccccc1CNC(=O)CN(C)CC(=O)Nc1ccccc1Br | inconclusive [inhibitor, single point] | 
75 | Cc1cc(Br)cc(Cl)c1OC(=O)c1ccncc1 | inactive | 
76 | NC1=NC(=Nc2ccc(Br)cc2)c2ccccc21 | inconclusive [inhibitor, single point] | 

Source: PubChem BioAssay AID651820 (National Center for Advancing Translational Sciences (NCATS), 2012)
